Measurements as given in PubChem BioAssay AID504466 (National Center for Advancing Translational Sciences (NCATS), 2011).
About 4,200 (1.3%) of roughly 330,000 compounds were called active. Inconclusive means that the source gave no clear call. Such entries were picked first, then a sample of the others. The call rests on the fitted dose curve; in most records, active means well fitted activation curve with a large enough effect; inconclusive means small, poorly fitted or top-dose-only effect; inactive means no such curve, though single readings can be large or run the other way. Where the call is inconclusive, the potency comes from a doubtful curve fit.

Assay: qHTS screen for small molecules that induce genotoxicity in human embryonic kidney (HEK293T) cells expressing luciferase-tagged ELG1; further: nearly all actives have a fitted effect of over 60% in size
Conditions: HEK293T ELG1-luciferase reporter, luminescence, 16 h; series mostly up to 46 µM
Summary of the method: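 Cells (2,000/well) expressing the ELG1-luciferase fusion are dosed by pin tool and kept 16 hr at 37 °C, 5% CO2. Signal comes from ONE-Glo luciferase reagent after 30 min at room temperature.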
Potency means the concentration at half of the fitted maximal effect; tags describe the fitted curve by direction and shape.

Question: With `O=C(NC1CCCC1)c1cc(-c2ccccc2)on1` as the compound, how does the Potency read?
Answer: The Potency was active: 9.2 µM.

Question: For `CC(=O)Nc1ccc(S(=O)(=O)N2CCN(c3nnnn3-c3ccccc3)CC2)cc1`, which Potency is on record?
Answer: Its Potency is inconclusive: 32.6 µM [activator, partial curve, poor fit].

Question: With `O=c1c2sccc2nc(SCc2cc(=O)n3cc(Cl)ccc3n2)n1Cc1ccccn1` as the compound, how does the Potency read?
Answer: Its Potency is inconclusive: 13 µM [activator, partial curve, poor fit].

Question: Which Potency does the source give for `Nc1nnc(SCC(=O)Nc2cccnc2Cl)s1` here?
Answer: Its Potency is “inactive”.

Question: For `O=C(Cn1c(=O)c2cccn2c2ccccc21)NCCc1ccc(Cl)cc1`, which Potency is on record?
Answer: The Potency was inconclusive: 32.6 µM [activator, partial curve, poor fit].

Question: With `N[C@@H](Cc1ccccc1)c1nnc(SCc2ccccc2Cl)o1` as the compound, how does the Potency read?
Answer: Its Potency is inconclusive: 23.1 µM [activator, partial curve, poor fit].

Question: With `CC(C)Oc1cccc(C(=O)NC(=S)Nc2cccnc2)c1` as the compound, how does the Potency read?
Answer: The Potency was inconclusive: 10.3 µM [activator, partial curve, poor fit].

Question: With `Cc1cc(N2CCN(C)CC2)ccc1NC(=O)c1c2c(nc3ccccc13)CCN(Cc1ccccc1)C2` as the compound, how does the Potency read?
Answer: The Potency was active: 23.1 µM.

Question: With `CCCCc1nc2cc(C(=O)N(C)C3CCOCC3)ccc2o1` as the compound, how does the Potency read?
Answer: Its Potency is active: 9.2 µM.

Question: With `COc1ccccc1-c1cc2nc(C)cc(C)n2n1` as the compound, how does the Potency read?
Answer: Its Potency is inconclusive: 16.4 µM [activator, partial curve, poor fit].

Question: Which Potency does the source give for `CN(C(=O)C1CCC(=O)N(Cc2cccc(F)c2)C1)C1CCCCC1` (stereo unspecified) here?
Answer: Its Potency is inconclusive: 10.3 µM [activator, partial curve].

Question: Which Potency does the source give for `CC[C@]1(C(=O)OC)[C@H]2C(=O)N(Cc3ccccc3)C(=O)[C@H]2[C@H]2CN=C(SCC(=O)c3ccccc3)N21` here?
Answer: The Potency was inconclusive: 32.6 µM [activator, partial curve, poor fit].

Question: For `COc1ccc(OCC(=O)OCC(=O)Nc2ccc3[nH]c(=O)[nH]c3c2)cc1`, which Potency is on record?
Answer: Its Potency is “inactive”.

Question: Which Potency does the source give for `NC(=O)c1ccccc1NC(=O)c1ccc2ccccc2c1` here?
Answer: The Potency was active: 2.31 µM.

Question: For `O=C(Nc1nnc(C2CC2)s1)c1ccccn1`, which Potency is on record?
Answer: The Potency was inconclusive: 1.16 µM [activator, partial curve].

Question: With `O=c1cc(-c2ccccc2)oc2ccccc12` as the compound, how does the Potency read?
Answer: The Potency was active: 20.6 µM.

Question: Which Potency does the source give for `CCN(CC)c1ccc(/C=N/NC(=O)c2c(Cl)cnn2C)c(O)c1` here?
Answer: The Potency was inconclusive: 9.2 µM [activator, partial curve].

Question: With `Cc1ccc(S(=O)(=O)N/N=c2\oc3ccccc3cc2C(=O)Nc2cccc(C)c2)cc1` as the compound, how does the Potency read?
Answer: The Potency was “inactive”.

Question: For `CCCCC(=O)Nc1ccc(C(=O)Nc2cccnc2)cc1`, which Potency is on record?
Answer: Its Potency is inconclusive: 16.4 µM [activator, partial curve, poor fit].

Question: For `Oc1cccc(/C=N/c2c(-c3ccco3)nc3ccccn23)c1`, which Potency is on record?
Answer: The Potency was inconclusive: 18.4 µM [activator, partial curve, poor fit].

Question: For `O=C(CSc1ccc(-c2cccc([N+](=O)[O-])c2)nn1)N1CCCCC1`, which Potency is on record?
Answer: The Potency was “inactive”.

Question: With `CCN(CC)CCCN1C(=O)C(O)=C(C(=O)c2ccco2)C1c1ccc(OC(C)C)cc1` (stereo unspecified) as the compound, how does the Potency read?
Answer: The Potency was “inactive”.

Question: With `COc1ccc(Nc2nccc3c2nnn3C)cc1` as the compound, how does the Potency read?
Answer: The Potency was active: 5.8 µM.

Question: For `Cc1cccc(C(=O)OCC(=O)N(CC(C)C)c2c(N)n(Cc3ccccc3)c(=O)[nH]c2=O)c1C`, which Potency is on record?
Answer: The Potency was “inactive”.

Question: With `COc1ccc(Nc2nc(-c3sc(N)nc3C)cs2)cc1` as the compound, how does the Potency read?
Answer: Its Potency is inconclusive: 25.9 µM [activator, single point].

Question: Which Potency does the source give for `COc1cccc(-n2nc3c(=S)[nH]nc(C)c3c2C)c1` here?
Answer: Its Potency is “inactive”.

Question: With `O=C(Nc1nnc(C2=COCCO2)o1)c1ccc([N+](=O)[O-])cc1` as the compound, how does the Potency read?
Answer: The Potency was “inactive”.

Question: For `CCOC(=O)/C(=C\C=C\N1CCOCC1)C(C)=O`, which Potency is on record?
Answer: The Potency was inconclusive: 25.9 µM [activator, partial curve, poor fit].

Question: Which Potency does the source give for `COc1ccc(/C=C2\CCc3ccccc3C2=O)c(OC)c1OC` here?
Answer: Its Potency is inconclusive: 2.59 µM [activator, partial curve].

Question: Which Potency does the source give for `COc1ccccc1NC(=O)c1ccc(NC(=O)Cc2n[nH]c(=O)c3ccccc23)cc1` here?
Answer: The Potency was inconclusive: 16.4 µM [activator, partial curve, poor fit].

Question: For `Nc1cccn2c(-c3ccc(Cl)cc3)cnc12`, which Potency is on record?
Answer: Its Potency is inconclusive: 14.6 µM [activator, partial curve].

Question: Which Potency does the source give for `Cc1cc(C)c(S(=O)(=O)N2CCN(C3CC(=O)N(c4ccccc4Cl)C3=O)CC2)c(C)c1` (stereo unspecified) here?
Answer: Its Potency is “inactive”.

Question: For `O=C(/C=C/c1ccccc1)Nc1cccnc1Cl`, which Potency is on record?
Answer: The Potency was active: 18.3 µM.

Question: For `CC(=O)NNc1ncnc2c1cnn2-c1ccc(C)c(C)c1`, which Potency is on record?
Answer: The Potency was inconclusive: 23.1 µM [activator, single point].

Question: For `CCOC(=O)c1sc(-c2ccc(Br)cc2)cc1N`, which Potency is on record?
Answer: The Potency was inconclusive: 9.2 µM [activator, partial curve].

Question: Which Potency does the source give for `NC(=O)c1sc2nc(-c3ccco3)ccc2c1N` here?
Answer: The Potency was inconclusive: 20.6 µM [activator, partial curve, poor fit].

Question: Which Potency does the source give for `CC1Cc2ccccc2N1C(=O)Cn1c(=O)oc2cc(S(=O)(=O)N3CCCCC3)ccc21` (stereo unspecified) here?
Answer: Its Potency is “inactive”.

Question: With `CSc1nc(N)nc(SC2C=CCCC2)c1C#N` (stereo unspecified) as the compound, how does the Potency read?
Answer: Its Potency is inconclusive: 16.4 µM [activator, single point].

Question: For `Cc1ccc(C(=O)NCCC(=O)N2CCCC2)cc1`, which Potency is on record?
Answer: Its Potency is active: 23.1 µM.

Question: With `O=C(NC1=NCCS1)c1ccc(OCC2CCCO2)cc1` (stereo unspecified) as the compound, how does the Potency read?
Answer: The Potency was inconclusive: 3.26 µM [activator, partial curve].

Question: With `CC(C)(C)c1ccc(C(=O)N2CCCC2)s1` as the compound, how does the Potency read?
Answer: The Potency was inconclusive: 20.6 µM [activator, partial curve, poor fit].

Question: For `Cn1cc(C(=O)C(=O)NC2CCCCC2)c2ccccc21`, which Potency is on record?
Answer: The Potency was inconclusive: 20.6 µM [activator, single point].

Question: Which Potency does the source give for `O=C(O)Cc1n[nH]c(=O)c2ccccc12` here?
Answer: Its Potency is “inactive”.

Question: With `COc1ccc(-c2nnc(Nc3nc4c(OC)cccc4s3)o2)cc1` as the compound, how does the Potency read?
Answer: The Potency was inconclusive: 29.1 µM [activator, single point].

Question: With `CN(c1ccccc1)c1nc(-n2ccnc2)nc(-n2ccnc2)n1` as the compound, how does the Potency read?
Answer: Its Potency is “inactive”.

Question: Which Potency does the source give for `CCc1ccc(Oc2cc(Cl)nc(N)n2)cc1` here?
Answer: Its Potency is inconclusive: 20.6 µM [activator, partial curve, poor fit].

Question: Which Potency does the source give for `Cc1cccc(-c2nc(=S)c3c(o2)CCCC3)c1` here?
Answer: Its Potency is inconclusive: 3.16 µM [activator, partial curve, poor fit].

Question: For `N#CC(C(=O)c1ccco1)c1ccccn1` (stereo unspecified), which Potency is on record?
Answer: Its Potency is inconclusive: 23.1 µM [activator, partial curve, poor fit].

Question: With `CCn1c(C)nc2cc(NC(=O)Nc3cccc(C(C)=O)c3)ccc21` as the compound, how does the Potency read?
Answer: Its Potency is “inactive”.

Question: For `COC(=O)c1ccccc1S(=O)(=O)N1CCC(C(=O)NCCC2=CCCCC2)CC1`, which Potency is on record?
Answer: Its Potency is “inactive”.

Question: With `COc1cccc(/C=N/N=C(\N)c2nonc2N)c1O` as the compound, how does the Potency read?
Answer: The Potency was active: 18.3 µM.

Question: Which Potency does the source give for `O=C(Nc1nccs1)C(=O)c1c[nH]c2ccccc12` here?
Answer: The Potency was active: 8.2 µM.

Question: Which Potency does the source give for `O=C(NC(=S)NC(CO)Cc1ccccc1)c1ccc(F)cc1` (stereo unspecified) here?
Answer: Its Potency is inconclusive: 18.3 µM [activator, partial curve, poor fit].

Question: With `CC(C)c1ccc(/C=C/C(=O)N2CCOCC2)cc1` as the compound, how does the Potency read?
Answer: Its Potency is inconclusive: 9.2 µM [activator, single point].

Question: For `O=C(COc1ccccc1)Nc1ccc(Cl)cn1`, which Potency is on record?
Answer: The Potency was inconclusive: 14.6 µM [activator, partial curve, poor fit].

Question: Which Potency does the source give for `O=C(Nc1nnc(-c2ccccc2F)s1)C1CCCO1` (stereo unspecified) here?
Answer: The Potency was inconclusive: 8.2 µM [activator, partial curve].

Question: With `CCCCn1nc(NC(=O)COC)c2cc3cc(OC)ccc3nc21` as the compound, how does the Potency read?
Answer: The Potency was “inactive”.

Question: With `Cc1cc(-c2n[nH]c(=S)o2)c(C)n1-c1ccccc1` as the compound, how does the Potency read?
Answer: The Potency was inconclusive: 2.91 µM [activator, full curve].

Question: Which Potency does the source give for `O=C(c1ccco1)N1CCC(c2ccccc2)C1` (stereo unspecified) here?
Answer: Its Potency is inconclusive: 20.6 µM [activator, single point].

Question: With `Cc1ccc(S(=O)(=O)N2CCCCC2)cc1NC(=O)C1CCC1` as the compound, how does the Potency read?
Answer: The Potency was “inactive”.

Question: Which Potency does the source give for `COc1cccc(NC(=O)c2ccc(OC(F)(F)F)cc2)c1` here?
Answer: Its Potency is inconclusive: 2.59 µM [activator, full curve, poor fit].

Question: Which Potency does the source give for `Cc1cc(C)c2c(N)c(C(=O)NC3CC3)sc2n1` here?
Answer: Its Potency is “inactive”.

Question: For `COc1ccc(C(=O)Nc2ccc3c(c2)nc(CCNC(C)=O)n3C)cc1`, which Potency is on record?
Answer: The Potency was active: 18.4 µM.

Question: For `O=C(N/N=C/c1c[nH]c2ccccc12)c1cccc(O)c1`, which Potency is on record?
Answer: The Potency was “inactive”.

Question: With `Cc1sc2ncnc(N3CCC(C(=O)Nc4ccc(Br)cc4Br)CC3)c2c1C` as the compound, how does the Potency read?
Answer: Its Potency is “inactive”.

Question: Which Potency does the source give for `COc1ccc(CCN(C)C(=O)CCc2nnc(-c3ccccc3)o2)cc1OC` here?
Answer: Its Potency is inconclusive: 13 µM [activator, partial curve].

Question: With `COc1cc(OC)cc(-c2c(C#Cc3ccsc3)c3cc(-c4ccc(OC)cc4F)ccc3n2C)c1` as the compound, how does the Potency read?
Answer: Its Potency is “inactive”.

Question: With `CCOc1ccc2nc(NC(=O)COC)sc2c1` as the compound, how does the Potency read?
Answer: The Potency was active: 2 µM.

Question: Which Potency does the source give for `Fc1ccc(OCc2nc(-c3cccs3)no2)cc1` here?
Answer: Its Potency is inconclusive: 16.4 µM [activator, partial curve].

Question: For `O=C(O)C1C2C=CC(C2)C1C(=O)NCCc1ccccc1` (stereo unspecified), which Potency is on record?
Answer: The Potency was inconclusive: 29.1 µM [activator, partial curve, poor fit].

Question: Which Potency does the source give for `COCCNC(=O)c1ccc2c3n(nc2c1)-c1ccccc1CO3` here?
Answer: Its Potency is inconclusive: 10.3 µM [activator, partial curve].

Question: Which Potency does the source give for `O=C(CSc1ncccn1)NCc1ccc(F)cc1` here?
Answer: The Potency was inconclusive: 23.1 µM [activator, partial curve, poor fit].

Question: With `CC(=O)C(Cc1cccc(F)c1)(Cc1cccc(F)c1)C(C)=O` as the compound, how does the Potency read?
Answer: Its Potency is “inactive”.

Question: Which Potency does the source give for `S=C(NCCc1ccccc1)NCc1cccc(Cl)c1` here?
Answer: Its Potency is “inactive”.

Question: Which Potency does the source give for `COc1ccc2nc(SCC(=O)N3CCNC3=O)[nH]c2c1` here?
Answer: Its Potency is inconclusive: 14.6 µM [activator, partial curve].

Question: With `O=C(CCn1c(=O)sc2ccccc21)Nc1nccs1` as the compound, how does the Potency read?
Answer: The Potency was inconclusive: 14.6 µM [activator, partial curve].
